# The other results are listed elsewhere or left out. Repeats are few or missing, and single values can be far off.
# Tested on: IST-MEL1
# Experiment: cell count relative to DMSO control; melanoma cells; higher = more viable cells
# Conditions: library dose: standard library concentration; 72 h
# 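Note: cells treated in 1,536-well plates, then fixed and DAPI-stained, with nuclei counted from automated high-throughput microscope images.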
row,Compound,cell count
1,"O=c1[nH]nc(Sc2ncc([N+](=O)[O-])s2)n1-c1ccc2c(c1)OCCO2 + COc1cc(N2CCC(N3CCN(C)CC3)CC2)ccc1Nc1ncc(Cl)c(Nc2ccccc2S(=O)(=O)C(C)C)n1 [NVP-TAE684] (first compound 1 µM, partner dose 0.4 µM)",91%
2,"COc1cc(Nc2ncc(F)c(Nc3ccc4c(n3)NC(=O)C(C)(C)O4)n2)cc(OC)c1OC [Tamatinib] + CC1(C)NC(=O)N(c2ccc([N+](=O)[O-])c(C(F)(F)F)c2)C1=O [nilutamide] (first compound 2 µM, partner dose 5 µM)",47.1%
3,"O=C(O)c1ccc(-c2c[nH]c3ncc(-c4ccccc4)cc23)cc1C1CCCC1 + COc1ccc2c(c1)CCC1C2CCC2(C)C(NCCCCCCN3C(=O)C=CC3=O)CCC12 [U73122] (first compound 0.8 µM, partner dose 2 µM)",76.6%
4,"O=c1[nH]nc(Sc2ncc([N+](=O)[O-])s2)n1-c1ccc2c(c1)OCCO2 + CO[C@@H]1[C@H](N(C)C(=O)c2ccccc2)C[C@H]2O[C@]1(C)n1c3ccccc3c3c4c(c5c6ccccc6n2c5c31)C(=O)NC4 [Midostaurin] (first compound 1 µM, partner dose 0.4 µM)",57.8%
5,"Cn1cncc1[C@@](N)(c1ccc(Cl)cc1)c1ccc2c(c1)c(-c1cccc(Cl)c1)cc(=O)n2C [tipifarnib] + NCC(=O)Nc1ccc(-n2nc(C(F)(F)F)cc2-c2ccc3c(ccc4ccccc43)c2)cc1 [OSU03012] (first compound 0.05 µM, partner dose 5 µM)",79%
6,"C[C@@H]1CCN(C(=O)CC#N)C[C@@H]1N(C)c1ncnc2[nH]ccc12 + Cc1cc([N+](=O)[O-])ccc1NS(=O)(=O)c1cc(Cl)ccc1Cl [FH535] (first compound 5 µM, partner dose 5 µM)",65.5%
7,"CC1(C)NC(=O)N(c2ccc([N+](=O)[O-])c(C(F)(F)F)c2)C1=O [nilutamide] + N#Cc1c(O)c2c(-c3ccc(-c4ccccc4O)cc3)csc2[nH]c1=O [A769662] (first compound 5 µM, partner dose 10 µM)",89.8%
8,"O=c1[nH]nc(Sc2ncc([N+](=O)[O-])s2)n1-c1ccc2c(c1)OCCO2 + Cc1ccc(Nc2nccc(N(C)c3ccc4c(C)n(C)nc4c3)n2)cc1S(N)(=O)=O [Pazopanib] (first compound 1 µM, partner dose 2 µM)",107%
9,"O=C(Nc1cccc(Cl)c1)Nc1ncc(CCNc2ncnc3ccsc23)s1 + Oc1cc(-c2nc(-c3ccccc3)[nH]c2-c2ccncc2)ccc1Cl [L779450] (first compound 0.004 µM, partner dose 1 µM)",67.9%
10,"COc1cc(Nc2ncc(F)c(Nc3ccc4c(n3)NC(=O)C(C)(C)O4)n2)cc(OC)c1OC [Tamatinib] + CCN(CC)CCCCNc1ncc2cc(-c3cc(OC)cc(OC)c3)c(NC(=O)NC(C)(C)C)nc2n1 [PD173074] (first compound 2 µM, partner dose 0.5 µM)",65.8%
11,"O=c1[nH]nc(Sc2ncc([N+](=O)[O-])s2)n1-c1ccc2c(c1)OCCO2 + Nc1ncn([C@H]2C[C@H](O)[C@@H](CO)O2)c(=O)n1 [decitabine] (first compound 1 µM, partner dose 0.5 µM)",70.3%
12,"O=c1[nH]nc(Sc2ncc([N+](=O)[O-])s2)n1-c1ccc2c(c1)OCCO2 + C[C@]1(O)C[C@@H](c2nc(-c3ccc4ccc(-c5ccccc5)nc4c3)c3c(N)nccn32)C1 [OSI906] (first compound 1 µM, partner dose 2 µM)",109%
13,"O=c1[nH]nc(Sc2ncc([N+](=O)[O-])s2)n1-c1ccc2c(c1)OCCO2 + CCCCCCCCc1ccc(CCC(N)(CO)CO)cc1 [fingolimod] (first compound 1 µM, partner dose 10 µM)",5.46%
14,"O=c1[nH]nc(Sc2ncc([N+](=O)[O-])s2)n1-c1ccc2c(c1)OCCO2 + COc1ccc(-c2ccc3c(N4CCOCC4)nc(N4C[C@@H](C)O[C@@H](C)C4)nc3n2)cc1CO [KU0063794] (first compound 1 µM, partner dose 0.1 µM)",93.2%
15,"COc1cc(Nc2ncc(F)c(Nc3ccc4c(n3)NC(=O)C(C)(C)O4)n2)cc(OC)c1OC [Tamatinib] + c1cc(-c2cnn3cc(-c4ccc(OCCN5CCCCC5)cc4)cnc23)ccn1 [Dorsomorphin] (first compound 2 µM, partner dose 2 µM)",74.8%
